Measured values from paper PMC4077589.
Numbering of substitutions follows the chain as printed. Results are given in words; binding and its absence hold for the method and conditions named. Binding seen in cells or lysates may run through a third protein. Some results given as binding are weak or reduced against the parent protein; the word gives no strength. Tags and fused reporters may be left off the sequences shown.

What was measured:
Experiment in all cases: co-IP; FLAG immunoprecipitation from lysates of transfected HEK293 cells; lysis buffer 50 mM Tris-HCl pH 7.5, 150 mM NaCl, 1% Triton X-100; 4°C; immunoblotting
TMEM115-A1 (human) = target: T1, TMEM115-A1 (human) (UniProt Q12893)
T1 sequence: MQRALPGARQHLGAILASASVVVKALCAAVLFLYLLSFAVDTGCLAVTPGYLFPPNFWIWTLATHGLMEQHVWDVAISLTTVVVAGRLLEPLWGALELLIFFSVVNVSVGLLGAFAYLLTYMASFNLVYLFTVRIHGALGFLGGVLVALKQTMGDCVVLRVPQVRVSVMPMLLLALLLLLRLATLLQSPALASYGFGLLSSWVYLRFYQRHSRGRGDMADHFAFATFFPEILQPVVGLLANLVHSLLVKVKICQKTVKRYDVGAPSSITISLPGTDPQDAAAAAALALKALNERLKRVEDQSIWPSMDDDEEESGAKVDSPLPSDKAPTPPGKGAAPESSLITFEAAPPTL

TMEM115-A2 (human) = target: T2, TMEM115-A2 (human) (UniProt Q12893)
T2 sequence: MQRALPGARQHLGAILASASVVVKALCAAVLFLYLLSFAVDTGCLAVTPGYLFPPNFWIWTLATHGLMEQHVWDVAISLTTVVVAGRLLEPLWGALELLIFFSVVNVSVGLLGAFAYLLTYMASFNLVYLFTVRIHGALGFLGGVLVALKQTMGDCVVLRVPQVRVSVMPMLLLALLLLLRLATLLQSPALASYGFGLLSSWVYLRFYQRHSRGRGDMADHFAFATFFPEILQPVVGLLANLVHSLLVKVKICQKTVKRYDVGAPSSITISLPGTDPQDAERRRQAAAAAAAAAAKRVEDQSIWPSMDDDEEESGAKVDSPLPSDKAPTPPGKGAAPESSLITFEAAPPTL

TMEM115-ΔCC (human) = target: T3, TMEM115-ΔCC (human) (UniProt Q12893)
T3 sequence: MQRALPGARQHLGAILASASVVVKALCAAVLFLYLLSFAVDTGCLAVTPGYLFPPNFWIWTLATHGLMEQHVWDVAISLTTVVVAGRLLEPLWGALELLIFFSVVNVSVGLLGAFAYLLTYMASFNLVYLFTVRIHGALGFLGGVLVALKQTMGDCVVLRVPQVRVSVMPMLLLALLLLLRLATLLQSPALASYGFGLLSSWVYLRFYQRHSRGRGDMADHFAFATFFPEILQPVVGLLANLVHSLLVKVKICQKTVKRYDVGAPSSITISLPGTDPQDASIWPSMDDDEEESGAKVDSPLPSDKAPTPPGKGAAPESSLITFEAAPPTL

TMEM115-205Δ (human) = target: T4, TMEM115-205Δ (human) (UniProt Q12893)
T4 sequence: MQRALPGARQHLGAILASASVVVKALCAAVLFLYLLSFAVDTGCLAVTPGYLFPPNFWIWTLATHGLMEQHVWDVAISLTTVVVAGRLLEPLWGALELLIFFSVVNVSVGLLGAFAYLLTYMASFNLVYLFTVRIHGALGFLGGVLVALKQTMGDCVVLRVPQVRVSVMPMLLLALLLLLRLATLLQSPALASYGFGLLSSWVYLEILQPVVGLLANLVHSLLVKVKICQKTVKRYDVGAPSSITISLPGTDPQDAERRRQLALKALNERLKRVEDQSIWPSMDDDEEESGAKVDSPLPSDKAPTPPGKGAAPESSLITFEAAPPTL

TMEM115-NT229 (human) = target: T5, TMEM115-NT229 (human) (UniProt Q12893)
T5 sequence: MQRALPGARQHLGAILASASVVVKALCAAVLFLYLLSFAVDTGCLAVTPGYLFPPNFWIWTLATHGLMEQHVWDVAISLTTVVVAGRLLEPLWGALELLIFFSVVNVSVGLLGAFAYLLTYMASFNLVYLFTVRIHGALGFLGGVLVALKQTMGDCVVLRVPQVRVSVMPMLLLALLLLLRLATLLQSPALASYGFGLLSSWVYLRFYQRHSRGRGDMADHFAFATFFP

TMEM115-NT205 (human) = target: T6, TMEM115-NT205 (human) (UniProt Q12893)
T6 sequence: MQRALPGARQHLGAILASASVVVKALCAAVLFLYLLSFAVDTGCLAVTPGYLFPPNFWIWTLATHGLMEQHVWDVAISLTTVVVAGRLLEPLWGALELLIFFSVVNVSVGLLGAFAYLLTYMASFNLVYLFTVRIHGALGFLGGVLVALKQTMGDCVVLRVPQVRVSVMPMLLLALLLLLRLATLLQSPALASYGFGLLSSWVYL

[1] = target: T7, C-terminally FLAG-tagged full-length TMEM115 (TMEM115-FL-FLAG) (human) (UniProt Q12893)
T7 sequence: T1 sequence with A281E, A282R, A283R, A284R, A285Q

binding (TMEM115-A1 (human)): binds
binding (TMEM115-A2 (human)): binds
binding (TMEM115-ΔCC (human)): binds
binding (TMEM115-205Δ (human)): binds
binding (TMEM115-NT229 (human)): binds
binding (TMEM115-NT205 (human)): binds
binding [1]: binds
B1: C-terminally Myc-tagged full-length TMEM115 (TMEM115–Myc) (protein, UniProt Q12893 1-351)
chain: T1 sequence with A281E, A282R, A283R, A284R, A285Q
